Test results published in the supplement of paper PMC7335073.
The full ranking holds about 4,100 sequences; the median of “relative CpG methylation activity (normalised to average over all NNNCGNNN flanks)” is about 0.94, and the highest 2% start at about 1.9. Some of the results follow.

Biological target: DNMT3B catalytic domain (mouse) (UniProt O88509)
Assay: relative CpG methylation activity (normalised to average over all NNNCGNNN flanks) (relative (1 = mean)); higher = more methylation of the central CpG
Conditions: system: in vitro, murine catalytic domain; CpG state: hemimethylated substrate pool; residues: 558-859
Procedure: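 Deep enzymology: a pool of dsDNA substrates with a central CpG flanked by 10 random nucleotides on each side was methylated by the murine DNMT3A or DNMT3B catalytic domain (0.8 mM SAM, 37 °C, 60 min). Methylation was then read out by hairpin ligation, bisulfite conversion and NGS. Values are the average methylation of each NNNCGNNN context (±3 flanks; the outer flanks are random and averaged over), normalised to the overall mean, so 1 = average activity.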

Chain of UniProt O88509 (O88509 558-859): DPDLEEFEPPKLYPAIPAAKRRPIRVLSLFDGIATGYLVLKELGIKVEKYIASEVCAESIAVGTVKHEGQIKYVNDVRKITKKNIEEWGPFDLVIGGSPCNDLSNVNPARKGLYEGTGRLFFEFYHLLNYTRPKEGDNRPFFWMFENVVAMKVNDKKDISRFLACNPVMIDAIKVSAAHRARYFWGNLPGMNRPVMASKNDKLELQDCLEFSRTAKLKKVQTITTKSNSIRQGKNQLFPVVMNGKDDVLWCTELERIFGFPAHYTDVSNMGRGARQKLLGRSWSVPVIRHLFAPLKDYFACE

Sequence	relative CpG methylation activity
AAGCGAGT	1.05
CTACGTGT	1
ATCCGCTC	0.971
TTTCGAGC	1.69
TAGCGCGT	0.628
AAACGCGA	0.809
TTCCGTAG	0.417
GAGCGCCT	0.683
CAACGAAG	1.13
ACACGTCC	1.38
TTTCGATG	1.48
GAACGAAA	1.34
TCACGTCC	1.24
GAGCGCGG	0.24
TTCCGTAT	0.673
ATTCGGGA	1.31
CAGCGATG	0.82
TCGCGGGG	0.906
CCCCGCTC	1.04
GCACGTAG	0.964
GAACGTCA	1.14
ACACGTGT	0.578
GCGCGTTA	0.587
TTACGTGA	1.21
GGGCGCAC	0.293

Sequence	relative CpG methylation activity
AATCGCAC	0.584
GATCGATA	1.46
CTTCGACG	1.3
CTACGTTG	1.11
GGGCGAAA	0.647
ACGCGTTA	0.526
GCACGTTT	0.645
TGACGTCG	0.815
ACTCGCCA	0.675
GGGCGAAT	0.676
AAGCGATC	1.28
GCGCGGGT	0.773
TTCCGTGC	1.16
TACCGTCC	0.881
CGCCGAAA	0.944
CTACGTGG	0.629
ATCCGGGT	1.44
GAACGAAC	1.48
AGTCGAGG	1.54
GTTCGATC	1.3
ATACGCGT	1.37
TATCGGAT	1.18
ATACGCGC	1.72
AGTCGTTG	0.298
TCTCGCTA	0.714

Sequence	relative CpG methylation activity
CGGCGCGT	0.45
CTTCGTTG	0.484
TACCGACT	1.16
GCGCGGAT	0.55
GATCGCAT	0.361
TAGCGGAA	0.638
TCCCGCCC	1.02
GGACGGAT	0.599
CACCGTCG	0.457
AGCCGTGG	0.0208
TATCGCGA	0.535
TTCCGATC	2.31
GACCGTCG	0.455
AGCCGCAG	0.211
TCACGGTC	1.67
AATCGTCT	0.545
AGGCGTCA	0.455
CTGCGGCG	1.48
TAACGAAC	1.67
ACACGCTC	1.37
CAGCGACA	0.777
ACCCGTCG	0.68
AACCGGCG	1.25
TACCGCTG	0.389
TCCCGATA	1.52

Sequence	relative CpG methylation activity
CCACGCTA	0.915
GATCGACG	1.03
GGCCGACC	0.756
CCTCGTCA	0.669
GGTCGATA	1.23
ATACGGCC	2.01
AAACGCAA	0.87
AGCCGATT	1.22
GAGCGCCG	0.478
TAACGCAA	0.759
CCGCGTAG	0.743
GAACGTTA	0.705
CGACGGAA	0.669
GATCGGCG	1.55
CTCCGGAC	1.31
TCTCGATA	1.68
CCTCGGCA	1.55
TCCCGGGA	1.4
CAACGGCA	1.74
TGGCGTCG	0.6
ATGCGTCT	0.729
GATCGCAA	0.278
GTTCGGCT	1.75
TGACGCTC	0.89
GTTCGCGT	0.679

Sequence	relative CpG methylation activity
GAACGGAT	1.01
CTACGCAA	1.33
GATCGCGG	0.551
GAACGTCC	1.22
CAGCGCAG	0.337
GTACGTAG	1.03
CTCCGGTT	1.72
CCGCGGCG	1.28
CCCCGTAT	0.536
GGTCGTGA	0.122
ATTCGATG	1.21
GTCCGCTG	1.02
CTACGACT	1.92
CACCGCGT	0.402
CCGCGCAC	0.755
GACCGGCC	1.47
AGCCGTAT	0.106
GATCGATG	1.14
GCGCGGGG	0.394
GAACGGTA	1.28
AGTCGCAT	0.427
AAACGTCC	1.22
TACCGCAG	0.246
AAGCGGGT	0.581
TTGCGACC	1.23

Sequence	relative CpG methylation activity
GCACGACC	1.26
GTCCGTCT	0.827
CCACGCCT	1.22
AGCCGGAC	0.434
TGTCGAGC	1.37
CTGCGAGA	1.51
GTCCGTAC	1.32
AACCGATA	1.2
TCCCGCGC	0.77
AGACGGCC	1.71
GGTCGTGC	0.413
CTCCGAGG	1.87
CTCCGACT	1.77
GGGCGGAC	0.543
CCCCGGTT	1.44
CTCCGGGA	1.77
TAACGCCG	1.42
GGACGACT	1.02
TCTCGTGC	0.758
TATCGCTA	0.662
AAGCGAGA	0.974
ATGCGTCA	0.863
TATCGCTC	0.837
GTCCGAAC	1.49
ATACGCTC	1.57

Sequence	relative CpG methylation activity
CACCGTAG	0.298
TGGCGTCA	0.414
ATACGCCG	1.69
TATCGAGC	1.57
CCCCGTGA	0.646
TGACGGGC	1.12
CAGCGATC	1.19
GCGCGACT	0.833
CATCGTGG	0.177
GTCCGGAA	1.13
CAACGCGC	1.42
ATCCGTCG	0.685
AAACGCTA	1.17
AGGCGATA	0.654
ACCCGAGA	1.59
AGCCGCCA	0.384
TCACGGAA	1.3
TCACGTGC	1.05
GCTCGTAA	0.408
ACTCGGCA	1.42
CGCCGCCA	0.454
GATCGCGA	0.392
TGACGAAA	1.04
TGCCGTAC	0.58
TAACGCGA	0.942

Sequence	relative CpG methylation activity
AAGCGACG	0.723
CTGCGTAG	0.918
AACCGTCT	0.425
CTGCGTAT	0.874
TTTCGATT	1.44
CATCGATT	1.68
GTCCGCGC	0.72
AGACGTGA	0.449
TTTCGATA	1.81
CACCGGTC	1.34
TACCGGCA	1.48
ATACGAGT	1.92
TCTCGTTA	0.269
AGACGGTT	1.41
GTTCGTAG	0.42
CTTCGCGC	1.21
CCACGCCG	1.28
TTACGTCG	1.58
CAGCGATA	1.06
CCGCGTTT	0.473
GCACGGGG	1.26
GGTCGCCT	0.856
ATGCGTTG	0.768
GTGCGGAT	0.671
TTTCGAAA	1.62

Sequence	relative CpG methylation activity
AGCCGATG	0.876
TGGCGGGT	0.625
CCTCGTTC	0.726
TTACGCGT	1.56
ATACGATC	2.12
TTGCGAAA	1.06
TCGCGCGT	0.498
GGACGAAG	1.05
ATCCGTAC	1.14
CCTCGCGA	0.653
TGGCGCCT	0.686
AGGCGGTC	0.656
CCACGTAA	0.901
AGACGAGA	1.79
TGCCGGGG	0.469
ATACGTAT	1.1
GACCGGGC	1.02
AGGCGCGA	0.281
TTTCGTCC	1.46
CTACGACA	1.68
TCGCGTTG	0.651
CACCGACC	1.09
GTTCGGCG	1.74
GTTCGCCC	0.862
CAACGTTA	0.868

Sequence	relative CpG methylation activity
CGACGGAC	0.934
CTACGTCT	1.54
TAGCGCGC	0.658
TTCCGCCT	1.05
GATCGTTT	0.274
TCCCGACG	1.37
AGTCGCGT	0.527
TGCCGGCT	0.975
AACCGGTG	0.805
AGACGAGG	1.67
TAGCGCCA	0.98
AGACGCCG	1.48
GCACGATG	1.35
ACGCGGAT	0.581
CGTCGCGT	0.404
CGTCGGGA	1.1
CACCGCTA	0.478
TCACGTAA	0.876
TGCCGTTC	0.419
ACCCGGTC	1.3
TGACGAGA	1.48
GCACGGCA	1.79
AGCCGCTA	0.259
GCGCGAGT	0.879
CCCCGTAA	0.383

Sequence	relative CpG methylation activity
TTTCGGAT	1.39
ACCCGTTG	0.371
AGACGTTG	0.617
CCCCGTAG	0.53
GTCCGGGA	1.64
TTCCGTCG	0.936
TAGCGATC	1.55
CCGCGTAT	0.578
TATCGAGT	1.51
TCACGACA	1.34
TTACGAAA	1.78
TAACGATG	1.44
CGACGACC	1.23
GCCCGGCC	1.59
AGCCGGAA	0.359
TGTCGTCA	0.543
ATCCGAGT	1.37
TTTCGGTT	1.29
GGGCGTCG	0.228
GGACGTAT	0.646
CGACGTGA	0.451
CATCGCGA	0.481
CTGCGTTT	0.744
GATCGGGA	0.916
TTTCGCGA	0.706

Sequence	relative CpG methylation activity
GACCGAAA	1.11
CCGCGGGA	0.89
ACACGGCC	1.94
GTTCGCGG	0.734
AGGCGGTG	0.468
CATCGACG	0.973
GCTCGATA	1.54
CGACGTCC	0.901
GCTCGAGA	1.63
GTCCGGGT	1.27
TAACGAAT	1.32
CACCGTAA	0.266
AGTCGTTC	0.708
ATCCGTAG	0.285
CCTCGACA	1.32
CAACGCGT	1.26
GTGCGACG	0.848
ACTCGAAT	0.855
CCCCGTCA	0.836
GATCGTCT	0.745
CCGCGGAA	0.562
CACCGTGC	0.514
CTACGAAA	1.69
ACCCGTAC	1.2
AGGCGGGC	0.758

Sequence	relative CpG methylation activity
ACACGCAA	0.869
AGACGTAT	0.58
AGGCGCCG	0.309
TTGCGTGC	0.603
ATACGACT	1.87
CGGCGGAA	0.609
ATCCGTGC	0.83
CCACGTTA	0.705
CCACGAGA	1.56
TTCCGATT	1.75
CCGCGGGT	0.929
AAACGGCT	1.82
TCCCGGGC	1.72
AGTCGATC	1.7
TTCCGAGA	1.6
TCGCGAGG	1.47
CGCCGCAG	0.103
TCCCGACA	1.42
CAACGGAC	1.54
CTTCGTGC	0.878
CACCGTGG	0.295
ATGCGAGA	1.16
GGGCGCCT	0.495
CGGCGGGC	0.776
GCGCGGTC	0.932

Sequence	relative CpG methylation activity
GCACGCAA	0.713
CTGCGTCC	1.35
CTACGCTT	1.78
CCTCGTGG	0.141
ATACGCAA	1.05
GGCCGCGG	0.104
GAACGAGC	1.85
GCACGCTC	1.46
TGTCGGAG	0.568
GCGCGTAA	0.589
GTCCGGAG	0.909
GGGCGTAG	0.303
TCACGGAG	0.76
TCGCGCCA	0.761
CCACGTAT	0.996
TTACGACA	1.81
CGTCGGCG	1.57
TGGCGTTT	0.26
GTGCGGCG	1.28
